Experimental data from the supplement of paper PMC3334620.
Whole data set: some 33,000 sequences, median “E-score (-0.5 to 0.5)” near -0.016, cut for the highest 2% near 0.32. The list shows a part of the results.

The sequences below were run against T1, Stp1 (UniProt B3LFK1) (assay: PBM E-score (8-mer binding enrichment) (E-score (-0.5 to 0.5)); higher = stronger / more preferred TF binding; most listed sequences are background and not binding sites). Conditions: protein concentration: 200 nM; construct: GST-full length.
T1 sequence: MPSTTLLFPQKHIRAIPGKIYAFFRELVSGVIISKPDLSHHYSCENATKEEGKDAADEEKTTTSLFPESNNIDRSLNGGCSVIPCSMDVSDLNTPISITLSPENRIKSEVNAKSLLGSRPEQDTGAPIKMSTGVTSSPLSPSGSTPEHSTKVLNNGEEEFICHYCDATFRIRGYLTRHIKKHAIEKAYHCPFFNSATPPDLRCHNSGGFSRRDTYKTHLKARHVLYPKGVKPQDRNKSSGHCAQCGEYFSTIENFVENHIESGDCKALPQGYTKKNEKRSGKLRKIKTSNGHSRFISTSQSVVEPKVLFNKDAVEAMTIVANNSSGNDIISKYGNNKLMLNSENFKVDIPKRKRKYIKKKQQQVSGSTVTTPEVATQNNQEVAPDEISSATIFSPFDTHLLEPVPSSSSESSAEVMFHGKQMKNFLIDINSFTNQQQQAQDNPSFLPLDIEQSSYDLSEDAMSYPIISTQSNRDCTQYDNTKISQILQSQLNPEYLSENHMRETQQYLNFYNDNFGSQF
Procedure: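 Universal 'all 10-mer' protein binding microarrays (Agilent AMADID 015681) probed with GST-tagged S. cerevisiae TFs (full-length or DBD) made by in vitro transcription/translation (PURExpress), about 100-200 nM. Bound TF was detected with fluorescent anti-GST. Each ungapped 8-mer (which stands for itself and its reverse complement) is scored by the PBM enrichment score (E-score), a modified Wilcoxon-Mann-Whitney statistic from -0.5 to +0.5, computed with the Universal PBM Analysis Suite. Scale: above 0.35 generally sequence-specific binding.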

Sequence | PBM E-score
ACCATCCT | -0.103
ACCAAGGT | 0.0467
TCTGTAAA | 0.0755
AAATATCG | 0.128
CGCTGGGA | -0.278
CAGTCTCC | -0.209
CCTCCTAA | -0.173
CAGTTTGC | 0.129
CATAAAGG | 0.0294
ATTGAGCC | 0.224
TATAAGGA | 0.224
TAAGTAGA | 0.132
CACCTAAG | 0.0678
ATAAAAAC | 0.182
CACCAGGC | -0.167
GATAGACC | -0.163
AGTTATGG | -0.0288
CACCGATA | -0.0268
ATCTCAGA | -0.0839
CCCTTCAG | -0.262
CCTTTGAG | -0.117
CTCATATC | -0.109
CCGGCAGG | -0.17
TATGGTCA | -0.0624
CCGGTGCA | -0.169

Sequence | PBM E-score
AGCTGTAA | -0.0621
GACTACGA | -0.15
GAAGCCCA | -0.264
GATGTACC | -0.0748
AACCGGGC | -0.115
ATGATGCC | 0.337
ATTCACGC | -0.039
AGGGTGCA | -0.0871
CCTACCAA | 0.114
CGGCGTGA | 0.298
CGTCGCAA | 0.0975
CGTCGGCA | -0.00734
CCCTGCGA | -0.0927
GTCAAAGA | -0.0139
GCACAGGA | 0.0797
AATCCGCT | -0.183
AAATCACC | 0.0528
AACTTGAA | 0.192
CTTTCTGA | 0.0728
ATAGACAG | 0.00341
CATTCCGC | -0.029
ACAGCTCA | -0.0404
TACGTAGA | 0.113
GGATATAC | 0.104
ATCATAAT | 0.124

Sequence | PBM E-score
CGGCGTTA | 0.454
ATTTGGCC | 0.0824
CAGCTCAA | 0.00202
AACGCCTT | 0.328
AGAGTGCT | -0.00994
AAGTATTC | 0.0654
CTCGGTTC | -0.217
GATACGCC | 0.146
ACGCGTAC | 0.118
AGCACGTA | -0.132
GCCCCTAA | -0.229
CAGTGTGG | -0.131
CAAACTGC | 0.0962
AAAACAAG | 0.0884
CGTGCGAG | 0.192
CTTACGAC | -0.167
CGCATTAG | -0.155
AAAGTCAG | 0.0706
ACGGGCGC | 0.233
CGCGGGCA | 0.175
CCTCGCCG | -0.0333
CAGCCTAC | -0.0641
CTCTACGC | 0.0798
AATTAACT | 0.0652
AAGCGTAT | 0.0589

Sequence | PBM E-score
AAGCGCTA | -0.0662
ACGAGGTG | -0.0462
AGTCACTA | -0.0131
ATAAAATC | 0.172
ACATCGCA | -0.185
GCTTCGTA | -0.0504
CATCAGGC | -0.0172
CAAGTATC | -0.0728
GCCCGTTA | -0.146
CCCCCATA | -0.301
GCAATACA | 0.0967
ATATGCTG | -0.126
CAAGATGC | 0.156
ACCACGCT | -0.0843
ATAGGTTG | -0.0757
GAGAGTAA | -0.0306
ATCGTTAC | -0.232
GCCCGAGC | 0.0148
ACAATGTA | -0.034
TCACATAA | 0.0966
GACCCCAA | -0.235
GCAGAAGC | 0.0258
GACGCTCA | -0.136
AGGTCGGG | -0.311
AGCTAGCA | -0.0803

Sequence | PBM E-score
ACAGTTAT | -0.0487
ATGAGGGA | -0.268
AGATGTTG | -0.0993
AGTTTAAA | 0.212
CCACACCG | 0.126
CAGCAGCG | 0.0862
CCTGCGAC | -0.287
AGCCTCTC | -0.167
ACTGGATG | -0.167
AGCCAGGG | -0.241
CCATGTGC | 0.206
AATGCAGT | -0.0125
CTTGGGGC | 0.194
CGGGCCAG | -0.159
CAGTCCAG | -0.212
AGATAAAC | 0.213
CGTAAGCA | -0.107
GAATGTGC | 0.13
ATCATGAA | 0.106
ACTGGACC | -0.159
GGCCCAAA | -0.136
CAGCGCAA | -0.124
AAGACATG | -0.116
CATGACTC | -0.18
CTGGTGCA | -0.0667

Sequence | PBM E-score
CAGAGCAA | -0.0443
CCGGAACC | -0.154
TGCTGCAA | 0.105
CCGACCAG | -0.144
CTACTCGC | -0.0788
ATAGGTGA | -0.197
GATTATAC | 0.179
AAGCCAGG | -0.219
ATCCCCGC | 0.0142
GCCCATAC | -0.0603
AAATCTAT | 0.169
GGATTTAA | 0.0769
ACCGGAAA | -0.188
CTGTGATC | -0.0819
TGGCGGAA | -0.223
TCCCCCAA | -0.311
CATACGTC | -0.138
AGTGAACC | 0.00324
CACGAAAG | 0.106
ACCGCGCC | 0.3
GTCTTAAA | -0.0945
CAGAAGTC | -0.192
TATAGCAA | -0.0711
GACTGTCA | -0.0708
CAAGGGAA | 0.0744

Sequence | PBM E-score
CTTTAATC | 0.0789
CTGTCCCC | -0.364
GACACCAA | 0.0295
CGCCGGAA | 0.109
AACCTTGA | -0.0386
ACCGGCCT | -0.0369
ATAAGACC | -0.103
CAGCCAGC | -0.244
CGCCCTAA | -0.084
ATAATCTA | 0.053
GGCGTCCC | 0.0235
AAGGGTGT | -0.152
AGATTAAT | 0.00922
CCCACGGA | 0.00496
ATGGTACG | 0.18
GGTCTCAC | -0.159
AACGAGAG | -0.0987
TAGAGCTA | -0.174
AATACGGA | 0.173
GGCGCCTA | 0.362
CTTTGTTC | 0.134
CGAACTTC | -0.0192
